Common to all, as to assay: cells
Test [1] has as its system RPMI-8226 (multiple myeloma (MM)). As to conditions: Homo sapiens, RPMI-8226, 72 h, read-out: IC50 of Ibrutinib alone for inhibition of proliferation.
Test [2] has as its system DOHH2 (follicular lymphoma (FL)). As to conditions: Homo sapiens, DOHH-2, 72 h, read-out: IC50 of Ibrutinib alone for inhibition of proliferation.
For test [3], the system named is KMS-11 (multiple myeloma (MM)). Conditions: Homo sapiens, KMS-11, 72 h, read-out: IC50 of Ibrutinib alone for inhibition of proliferation.
For test [4], the system named is Z-138 (mantle cell lymphoma (MCL)). Conditions: Homo sapiens, Z-138, 72 h, read-out: IC50 of Ibrutinib for inhibition of proliferation.

pIC50: −log10 of the molar value.

The record followed here is patent US11478470B2, “Combination product of Bcl-2 inhibitor or Bcl-2/Bcl-xL dual inhibitor and BTK inhibitor and use thereof in the prevention and/or treatment of diseases” (ASCENTAGE PHARMA (SUZHOU) CO., LTD., priority 2018, dated 2022).

`C=CC(=O)N1CCC[C@@H](n2nc(-c3ccc(Oc4ccccc4)cc3)c3c(N)ncnc32)C1` [Ibrutinib, reference compound]: the pIC50 in test [1] is 4.73; in test [2], 7.68; in test [3], 4.83; in test [4], 4.97.
